Assay results published in ChEMBL document CHEMBL1201862, “PubChem BioAssay data set” (2004).
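Cultured in 96-well plates, cells were exposed to test compound for 48 hours across five concentrations. Abbreviation: GI50, concentration required for 50% inhibition of growth.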 Activity calls are given as the source filed them. No stated cut-off is given here; in the data, active = GI50 up to about 1.1 µM and inactive = higher.

Test system: NCI-H322M
Assay: NCI tumour cell line growth inhibition, 48 h

SMILES	GI50
NC1=C(Cl)C(=O)c2ccccc2C1=O	inactive: 7.83 µM
c1cnc(N2CCN(Cc3c[nH]c4ccccc34)CC2)nc1	inactive: 79.3 µM
COC1=C(C)C(=O)C2=C(C1=O)C1C3CC4=C(C(=O)C(OC)=C(C)C4=O)C(CNC(=O)C(C)=O)N3C(C#N)C(C2)N1C (centres undefined)	active: 0.0347 µM
OC(c1ccccc1)(c1ccccc1)c1nccc2ccccc12	inactive: 52 µM
NC(=O)c1ccccc1[N+](=O)[O-]	inactive: > 100 µM
COC1OC(CBr)C(OC(c2ccccc2)(c2ccccc2)c2ccccc2)C(OC(c2ccccc2)(c2ccccc2)c2ccccc2)C1OC(c1ccccc1)(c1ccccc1)c1ccccc1 (centres undefined)	inactive: 42.2 µM
CC(=O)Nc1ccc(-c2nnc(SCC(=O)Nc3ccc(Cl)cc3)o2)cc1	inactive: 16 µM
CCN(CC)CCNC(=O)c1nn(-c2ccc(Cl)cc2)c2c1CCc1cc(OC)ccc1-2	inactive: 9.1 µM
COc1cc2c(c(OC)c1OC)-c1ccc(OC)c(=O)cc1C(NC(=O)COc1ccccc1)CC2 (centres undefined)	active: < 0.01 µM
O=C(NC(Cc1ccccc1)P(=O)(O)c1ccccc1)OCc1ccccc1 (centres undefined)	inactive: > 100 µM
O=C(ON=C1c2ccccc2C(Br)C(Br)c2ccccc21)c1cc([N+](=O)[O-])cc([N+](=O)[O-])c1 (centres undefined)	inactive: 25.2 µM
Cc1ccc(/C=N/n2c(-c3ccc(C)cc3)n[nH]c2=O)cc1	inactive: 32.1 µM
CC1=CC2CCC1(C)C/C2=C(/C)OC=O (centres undefined)	inactive: > 100 µM
O=C([O-])C[n+]1ccccc1.c1ccncc1	inactive: > 100 µM
O=c1c2cc(S(=O)(=O)O)ccc2nc(COc2ccc(Oc3ccc(Cl)cc3Cl)cc2)n1-c1ccc(Cl)cc1Oc1c(Cl)cccc1Cl	inactive: 38.5 µM
COC(=O)C(=O)OC1(C(C)=O)CC2(c3ccccc3)OC1(c1ccccc1)c1ccccc12 (centres undefined)	inactive: 17.3 µM
Brc1ccc(/C(N=N/C(=N\Sc2ccccc2)c2ccc(Br)cc2)=N/Sc2ccccc2)cc1	inactive: > 100 µM
Sc1nnc(COc2ccc(Cl)cc2Cl)[nH]1	inactive: > 100 µM
O=C1c2ccccc2CC12Cc1cc3c(cc1C2)CCC3	inactive: 58.5 µM
CCOP(=O)(OCC)C1C(CO)OC(n2ccc(=O)[nH]c2=O)C1O (centres undefined)	inactive: > 100 µM
CC(C)(C)NC(NC(C)(C)C)=C(/C=C(/Cl)[N+](=O)[O-])[N+](=O)[O-]	inactive: > 100 µM
CNc1cc([N+](=O)[O-])ccc1C(=O)N1CCC[C@H]1CO	inactive: > 100 µM
N#CC(C(=O)CCC(=O)Nc1cccc(Cl)c1)c1ccccc1 (centres undefined)	inactive: > 100 µM
O=c1cc(NNc2ccc(F)cc2)[nH]c(=O)[nH]1	inactive: 32.3 µM

SMILES	GI50
Cc1[nH]c2cc([N+](=O)[O-])ccc2c1[N+](=O)[O-]	inactive: 22.2 µM
CC(=O)NNc1nc(C)c(C(/C=C/c2ccc(Cl)cc2)=N\N=C(N)N)s1	inactive: > 100 µM
[N-]=[N+]=CC(=O)OC(CCl)CCl	inactive: > 100 µM
CCC1C(=O)OCc2c1cc1n(c2=O)Cc2cc3ccccc3nc2-1 (centres undefined)	inactive: 33.8 µM
CCCCC(=O)Nc1ccc2cc(C(=O)OC)c(=O)[nH]c2n1	inactive: > 100 µM
CC(NC(=O)C(Cc1ccc(OC(=O)c2ccccc2)cc1)NC(=O)OC(C)(C)C)C(=O)NCC(=O)NC(Cc1ccccc1)NC(=O)OCc1ccccc1 (centres undefined)	inactive: > 100 µM
O=C(O)Cn1c(=O)[nH]c(=O)c2[nH]cnc21	inactive: > 100 µM
c1ccc(N/N=N/c2ccc(-c3nc4ccccc4[nH]3)cc2)nc1	inactive: 19.2 µM
CC(NC(=O)c1ccc(OP(=O)(OCC2=CC(=O)c3ccccc3C2=O)N(C)CCCCCl)cc1)c1ccc(OCC2CCCCC2)c(C(N)=O)c1 (centres undefined)	inactive: 15.5 µM
O=c1sc(Nc2ccc3ccccc3c2Cl)nc2ccccc12	inactive: > 100 µM
C/C(=N\NC(N)=O)C(CN(C)C)C(c1ccccc1)c1c(O)c2ccccc2oc1=O (centres undefined)	inactive: > 100 µM
OCC(O)C1OC2CC1Nc1ccccc1N2 (centres undefined)	inactive: > 100 µM
O=c1c(S(=O)(=O)Oc2ccccc2)coc2cc(F)ccc12	inactive: 20 µM
CCOC(=O)NC(NNc1ccc([N+](=O)[O-])cc1[N+](=O)[O-])(C(F)(F)F)C(F)(F)F	inactive: 35.2 µM
CC1=CC2C(O1)C1C(=O)C=CC(=O)C1=CC2[N+](=O)[O-] (centres undefined)	inactive: > 47.6 µM
C=CCCCC1(C)CCNC1=S (centres undefined)	inactive: > 100 µM
Cc1nc2c(ccc3[nH]c4ccccc4c32)s1	inactive: 31.2 µM
COc1ccc2nc3ccc(OC)cc3c(SCc3ccccc3)c2c1	inactive: > 35.7 µM
COc1ccc2c(c1)CCCC1C3=NCCC3(C)CSC21 (centres undefined)	inactive: > 100 µM
CC(=O)Nc1nc(C)c(S(=O)(=O)NC(=O)NC2NC(=O)NC2=O)s1 (centres undefined)	inactive: > 100 µM
CC(=O)OCC1OC(n2c(C)c(C)c(C)c(C#N)c2=S)C(OC(C)=O)C(OC(C)=O)C1OC(C)=O (centres undefined)	inactive: > 100 µM
OCc1ccccc1C1CSCSC1	inactive: > 100 µM
CCCCCCCCCCCCCCCCCCOP1(=O)OCCO1	inactive: 81.1 µM
O=C(O)[C@@H]1C[C@@H](O)CN1C(=O)OCc1ccccc1	inactive: > 100 µM

SMILES	GI50
CCC1CCC2C3CC=C4CC(OC(C)=O)C(N)CC4(C)C3CCC12C (centres undefined)	inactive: 3.49 µM
CN(C)CCCNc1ccnc2cc([N+](=O)[O-])ccc12	inactive: 12.1 µM
CCOC(=O)C(O)(NC(=O)Nc1ccc(F)cc1)C(F)(F)F (centres undefined)	inactive: > 100 µM
Fc1cccc(/C=N/C23CC4CC(CC(C4)C2)C3)c1	inactive: > 100 µM
COc1ccc(/C=N/Nc2nc3ccccc3c(=O)n2-c2ccccc2)c(OCc2ccccc2)c1	inactive: > 100 µM
COC(CN1C=C(Sc2ccccc2)CC1)OC	inactive: 39.8 µM
CN(C)CC1CCCc2ccccc2C1=O (centres undefined)	inactive: 13.6 µM
COc1ccc2[nH]c3c(C)c4cc[n+](COC(=O)c5ccccc5)cc4c(C)c3c2c1	active: 0.274 µM
Cc1ccc(Nc2c(C#N)[n+]([O-])c3cc(Cl)ccc3[n+]2[O-])cc1	inactive: > 24.4 µM
COC(=O)C1=C(C)N2[C@H](C(=O)O)CO[C@@]2(C)[C@H](C(=O)OC)[C@H]1c1cccc([N+](=O)[O-])c1	inactive: > 100 µM
C=C1[C@@](C)([C@@H]2CCCS2)[C@H]2C(C)=C[C@]1(C)n1c(=O)n(-c3ccccc3)c(=O)n12	inactive: > 100 µM
N#CC1=C(N)N2C(=O)/C(=C/c3ccccc3)SC2C(c2nc3ccccc3[nH]2)=C1c1ccccc1 (centres undefined)	inactive: 2.47 µM
NC(=O)C1CCN(Cc2c(Cl)c(Cl)c(CN3CCC(C(N)=O)CC3)c(Cl)c2Cl)CC1	inactive: 50.5 µM
CCOC(=O)/C1=C(\C)N(c2ccc(C)cc2)C(=O)c2ccccc2C(=O)c2c(OC(C)=O)ccc(OC(C)=O)c21	inactive: 14.1 µM
COC(=O)C1(C)CCc2c(ccc3ccccc23)C1=O (centres undefined)	inactive: 27.1 µM
CC(=O)Oc1ccn2nc(C)c(Br)c2c1	inactive: > 100 µM
Nc1nc(Cl)cc(NCC2(CO)CC=CC2)n1	inactive: > 100 µM
Cc1ccc(/C=C2/N/C(=N\N=C/c3ccccc3)NC2=O)cc1	inactive: 68.2 µM
C#C[C@]1(O)CCC2C3CCc4cc(Oc5nc(F)nc(-c6c7cc8ccccc8cc7c7n6CCS7)n5)ccc4C3CCC21C (some centres undefined)	inactive: 92 µM
COC(=O)C(CCC1C=CCC1)/N=C\c1ccccc1 (centres undefined)	inactive: 43.6 µM
CN(C)c1ccc(/C=C2\N=C(N/N=C/c3ccccc3O)NC2=O)cc1	inactive: 34.9 µM
CC(=O)OCc1cccc(O)c1C(=O)CCC=C(C)C	inactive: > 100 µM
CC(C)(Br)C1(O)CCCN1C(=O)c1ccccc1 (centres undefined)	inactive: > 100 µM
O=[N+]([O-])C(Cl)=C/C(=C(\Cl)SCc1ccccc1)[N+](=O)[O-]	inactive: 33.3 µM

SMILES	GI50
CCC1OC2C(CC=C(C)C)=C3OC(C)(O)C(C)(CC)C(O)C3=C3OC(=O)C=C1C32 (centres undefined)	inactive: 50.6 µM
NCCC1([N+](=O)[O-])C=CN=CC1 (centres undefined)	inactive: > 100 µM
O=C(CC1(O)C(=O)Nc2c(Cl)ccc(Cl)c21)c1ccc(F)cc1 (centres undefined)	inactive: 89.5 µM
C[C@]12CC/C(=N\O)C=C1CC[C@@H]1[C@@H]2CC[C@]2(C)C(=N/O)/C(=C/c3cccnc3)C[C@@H]12	inactive: 18.6 µM
NC(=O)N1N=C2c3ccccc3SC[C@H]2[C@@H]1c1ccccc1	inactive: 33.5 µM
Cc1cc(C#N)c[n+](C)c1	inactive: > 100 µM
CON(C)C(=O)C1CCCO1 (centres undefined)	inactive: > 100 µM
O=C(O/N=C1/CCC/C1=C\c1ccccc1)c1ccc(Cl)c(Cl)c1	inactive: > 100 µM
CCOC(=O)C1(C(=O)OCC)OC(=O)NC2=C1CCCC2	inactive: > 100 µM
CSc1nc2ccccc2c(=O)n1/N=C1\C(=O)N(CN2CCOCC2)c2ccc(Cl)cc21	inactive: 24.1 µM
COc1ccc(/C=[N+](\[O-])[C@H](COCc2ccccc2)c2ccccc2)cc1	inactive: > 100 µM
O=[N+]([O-])c1cc(/C=N/C23CC4CC(CC(C4)C2)C3)ccc1Cl	inactive: 69.3 µM
COc1cc(Br)c(CC2(C#N)c3ccccc3C3C(N2C(=O)c2ccccc2)C3(Cl)Cl)cc1OC (centres undefined)	inactive: > 65.5 µM
Nc1ncnc2oc(-c3cccs3)nc12	inactive: > 100 µM
O=[N+]([O-])c1ccc2c(c1)c(S(=O)(=O)O)cc1nonc12	inactive: > 100 µM
O=C1c2c(c3c4ccccc4[nH]c3c3[nH]c4ccccc4c23)C(=O)N1Cc1ccccc1	inactive: 3.24 µM
COc1c2c(c3c(c1C1OC(C)[C@@H](C)O1)CC(C)(C)O3)C(=O)c1ccccc1C2=O (some centres undefined)	inactive: > 100 µM
COCC1N=C(c2ccc(OC)c(OCc3ccccc3)c2OC)O[C@H]1c1ccccc1 (some centres undefined)	inactive: 18.9 µM
COc1ccc(-c2nc(N)c3ncn(C4OC(CO)C(O)C4O)c3n2)cc1 (centres undefined)	inactive: > 100 µM
NP(=O)(Oc1c2occc2cc2ccc(=O)oc12)N(CCCl)CCCl (centres undefined)	inactive: > 100 µM
Cc1occc1/C(S)=N\c1ccc(Cl)c(COC(C)(C)C)c1	inactive: 17.2 µM
COc1cccc(-n2c3nc(=O)n(C)c(=O)c-3nc3ccccc32)c1	inactive: 24 µM
